Biological target: T1, hIL-18Ra (human, UniProt Q13478)
T1 chain: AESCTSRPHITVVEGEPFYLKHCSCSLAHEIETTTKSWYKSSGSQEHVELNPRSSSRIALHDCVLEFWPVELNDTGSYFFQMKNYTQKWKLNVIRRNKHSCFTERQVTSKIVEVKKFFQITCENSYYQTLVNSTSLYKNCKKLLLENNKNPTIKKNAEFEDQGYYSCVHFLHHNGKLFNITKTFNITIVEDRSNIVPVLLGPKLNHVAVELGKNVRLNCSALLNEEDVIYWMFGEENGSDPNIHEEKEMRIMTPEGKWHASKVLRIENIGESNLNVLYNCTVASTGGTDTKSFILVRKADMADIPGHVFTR
Assay: BLI, 32 nM

B1: proIL-18 (protein)
chain: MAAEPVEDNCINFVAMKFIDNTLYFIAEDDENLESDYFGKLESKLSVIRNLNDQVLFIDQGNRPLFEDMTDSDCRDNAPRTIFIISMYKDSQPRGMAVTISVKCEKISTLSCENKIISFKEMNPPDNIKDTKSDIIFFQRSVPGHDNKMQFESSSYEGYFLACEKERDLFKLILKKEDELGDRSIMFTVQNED
binding result: no binding
